# Laboratory results taken from PubChem BioAssay AID686979 (National Center for Advancing Translational Sciences (NCATS), 2013).
# Values joined by “and” are separate entries in the source; they are usually repeats but may differ in a detail not shown here. Identical values can stand only once. Screen size: about 420,000 compounds; about 50,000 (12%) were called active. This list was built around the results that the source calls inconclusive (neither active nor inactive); the mix of calls is not that of the screen. The call rests on the fitted dose curve; in most records, active means well fitted inhibition curve with a large enough effect; inconclusive means small, poorly fitted or top-dose-only effect; inactive means flat fitted curve, though single readings scatter. Potencies of inconclusive entries are doubtful fits and often do not repeat.
# Test: qHTS for Inhibitors of human tyrosyl-DNA phosphodiesterase 1 (TDP1): qHTS in cells in presence of CPT; further: nearly all actives have a fitted effect of over 55% in size
# Settings: chicken DT40 Tdp1-/-;hTDP1 cells + 20 nM CPT, ATP luminescence, 48 h; activity change, negative = growth inhibition: at 46.2 µM (top of the series) unless noted
# Summary of the method: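 Chicken DT40 Tdp1-/- cells complemented with human TDP1, 400 cells/well, exposed to compounds plus 20 nM camptothecin for at least 48 h at 37 C; viability read as ATP content by CellTiter-Glo luminescence.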
# On the % scale 0 is the no-effect control and ±100 the full control effect; potency means the concentration at half of the fitted maximal effect; tags describe the fitted curve by direction and shape.
Compound,Potency,"activity change, negative = growth inhibition"
COc1ccc(CN(CC(=O)NCc2ccccc2)C(=O)CCC(=O)Nc2cc(C)ccn2)cc1,inactive,–
COc1ccc(NC(=O)Cn2c(=O)n(-c3cccc(C)c3)c(=O)c3c2c2cc(C)ccc2n3C)cc1Cl,–,inconclusive: -26.1% [inhibitor]
Cn1c(Cn2c(=O)sc3ccccc32)nnc1SCC(=O)NC1CCCC1,active: 16.4 µM,–
CC1Cc2ccccc2N1C(=O)CN(C)CC(=O)Nc1cccc(F)c1 (stereo not drawn),"inconclusive: 29.1 µM [inhibitor, single point]",–
Cc1ccc(NC(=O)c2cn3c4c(ccc(Cl)c4c2=O)OC(C)C3)cc1C (stereo not drawn),inactive,–
CCOCCCNC(=O)c1cc2c(=O)n(C)c3ccccc3c2n1C,"inconclusive: 23.1 µM [inhibitor, single point]",–
Cc1csc(NC(=O)CSc2nnc(Cc3cccn3C)n2-c2ccc(F)cc2)n1,"inconclusive: 29.1 µM [inhibitor, single point]",–
O=C(OCC(=O)N1CCN(C(=O)c2ccco2)CC1)c1cccc(S(=O)(=O)N2CCc3ccccc32)c1,inactive,–
N/C(Cc1ccc([N+](=O)[O-])cc1)=N\OC(=O)c1ccc(Br)o1,"inconclusive: 29.1 µM [inhibitor, single point]",–
CC1(C)Cc2c(cnn2-c2ccccc2)C(NC(=O)CCCn2cncn2)C1 (stereo not drawn),"inconclusive: 0.651 µM [inhibitor, partial curve, poor fit]",–
Cc1ccc(CN(Cc2ccccc2)C(=S)NCC(=O)NCc2cccnc2)o1,–,inconclusive: -31.7% [inhibitor]
Cc1cccc(Nc2nc3ccccc3s2)c1C,"inconclusive: 23.1 µM [inhibitor, partial curve]",–
O=C(NCCN1CCC(n2c(=O)[nH]c3ccccc32)CC1)c1ccc(Cl)cc1,active: 3.66 µM,–
CCOC(=O)c1c(S(=O)(=O)N2CCC(C)CC2)c(C)n(C)c1C,inactive,–
CC1=C(C(=O)Nc2ccccc2)C(c2ccco2)C(C#N)=C(SCC(N)=O)N1 (stereo not drawn),"inconclusive: 29.1 µM [inhibitor, single point]",–
CCOC(=O)c1cccc(NC(=O)c2cc3cc4cc(OC)ccc4nc3s2)c1,"inconclusive: 23.1 µM [inhibitor, single point]",–
O=C(C1CCCN(Cc2cccc(Cl)c2)C1)N1CCCCC1 (stereo not drawn),"inconclusive: 23.1 µM [inhibitor, single point]",–
CC1(c2cnc(Nc3ccccc3)s2)CCC(=O)O1 (stereo not drawn),inactive,–
COc1ccc(C(=O)Nc2cc(-c3ccccc3)nn2-c2ccccc2)cc1,"inconclusive: 29.1 µM [inhibitor, single point]",–
O=c1ccn([C@@H]2O[C@H](COP(=O)(O)OP(=O)(O)OP(=O)(O)O)[C@@H](O)[C@H]2O)c(=O)[nH]1,inactive,–
CCC(C)[C@H](NC(=O)[C@@H]1CSC2c3ccccc3C(=O)N21)C(=O)NCc1ccco1 (stereo partly drawn),inactive,–
CCOC(=O)c1sc(NC(=O)C(C)Oc2ccc(OC)cc2)c(C(=O)OCC)c1C (stereo not drawn),"inconclusive: 20.6 µM [inhibitor, partial curve]",–
CCC(C)N(C(=O)CSc1nnc(C)n1C)C1CCS(=O)(=O)C1 (stereo not drawn),inactive,–
CN(C)c1ccc(CNC(=O)C2CCCN(S(=O)(=O)c3ccc4c(ccn4C)c3)C2)cc1 (stereo not drawn),active: 16.4 µM,–
Cn1c(=O)[nH]c(=O)c2c1nc(Br)n2CCCCSc1nc2ccccc2o1,"inconclusive: 18.4 µM [inhibitor, single point]",–

Compound,Potency,"activity change, negative = growth inhibition"
COc1cc(NC(=O)c2ccccc2)c(OC)cc1NC(=O)CSc1[nH]c(=O)cc(C)c1C#N,active: 3.66 µM,–
N#CC1(NC(=O)COC(=O)/C=C/c2ccc3ccccc3n2)CCCCC1,inactive,–
CCc1nnc(NC(=O)CSc2nc(-c3ccccc3)nc3ccccc23)s1,inactive,–
O=C(NCc1cccnc1)c1cc([N+](=O)[O-])ccc1N1CCOCC1,inactive,–
O=C(Nc1cccc(S(=O)(=O)N2CCCC2)c1)c1ccncc1,"inconclusive: 29.1 µM [inhibitor, single point]",–
COc1ccc(/C=N/NC(=O)c2nonc2N)cc1OC,inactive,–
NC(=O)CC(NC(=O)Cc1cccc2ccccc12)c1ccc(NCCc2cccc(F)c2)c([N+](=O)[O-])c1 (stereo not drawn),"inconclusive: 29.1 µM [inhibitor, single point]",–
COc1cc(-c2nc3ccccn3c2N)ccc1O,inactive,–
C(#Cc1ccccc1)C[N+]1(CC#Cc2ccccc2)CCCC1,active: 1.84 µM,–
CN(Nc1cccc(Cl)c1)c1cccc(Cl)c1,"inconclusive: 29.1 µM [inhibitor, single point]",–
Cc1ccc2c(c1)C1CN(C)CCC1N2C(=S)NC(=O)c1ccc(Cl)cc1Cl (stereo not drawn),"inconclusive: 18.4 µM [inhibitor, single point]",–
Cc1ccc2nc(C3CCCCC3)c(Cc3cccc(F)c3)n2c1,"inconclusive: 29.1 µM [inhibitor, single point]",–
COc1ccc(NC(=O)COC(=O)CN2C(=O)C3CC=CCC3C2=O)c([N+](=O)[O-])c1 (stereo not drawn),"inconclusive: 6.51 µM [inhibitor, partial curve]",–
Cc1csc(NC(=O)CSc2ncnc3c2cnn3-c2ccccc2Cl)n1,"inconclusive: 16.4 µM [inhibitor, single point]",–
COc1cccc(N=Nc2c(C)[nH]n(-c3ccccc3)c2=O)c1,"inconclusive: 18.4 µM [inhibitor, partial curve]",–
CCCCn1c(NC(=O)c2ccccc2Cl)c(C#N)c2nc3ccccc3nc21,active: 23.1 µM,–
Cc1c(C#N)c(O)n(CCO)c(=O)c1N=Nc1ccc2c(c1)COC2=O,inactive,–
CC1=Nc2cc(C(=O)NCc3ccc(C)cc3)ccc2Sc2ccc(Cl)cc21,"inconclusive: 16.4 µM [inhibitor, single point]",–
O=C(Nc1ccnn1C1CCN(Cc2ccc(O)c(Cl)c2)CC1)C1CCCC1,inactive,–
O=C(CSc1nccn1-c1ccc(F)cc1)NCc1ccc(F)cc1,"inconclusive: 1.84 µM [inhibitor, full curve]",–
CC1=C(C(=O)N(C(C)C)C(C)C)CC(CC(=O)NC2CCCC2)C(=O)N1Cc1ccc(F)cc1 (stereo not drawn),inactive,–
CCN1CCC(N(Cc2cccc(OC)c2)C(=O)Nc2cccc(C)c2C)CC1,"inconclusive: 23.1 µM [inhibitor, single point]",–
Cc1cc(C)cc(-n2c(C)cc(/C=N/NC(=O)c3cccc([N+](=O)[O-])c3C)c2C)c1,"inconclusive: 29.1 µM [inhibitor, single point]",–
CCOc1ccc(CCNC(=O)c2ccc3c(=O)[nH]c4c(C(=O)NC(C)C)sc(=S)n4c3c2)cc1,active: 23.1 µM,–
COc1ccc2[nH]c3c(=O)n(CCN4CCOCC4)cnc3c2c1,inactive,–

Compound,Potency,"activity change, negative = growth inhibition"
CCCCNC(=O)Nc1ccc2c(c1)N(C)C(=O)c1ccccc1S2,"inactive and inconclusive: 29.1 µM [inhibitor, single point]",–
CCN(CC)C(=O)CN1C(=O)COc2ccc(S(=O)(=O)N3CCOCC3)cc21,inactive,–
O=C(Nc1ccc(C(=O)N2CCOCC2)cc1)c1cc(-c2cccnc2)nc2ccc(Br)cc12,active: 2.31 µM,–
CCCCC(=O)NC(c1ccco1)c1cc(Cl)c2cccnc2c1O (stereo not drawn),"inconclusive: 29.1 µM [inhibitor, single point]",–
CO/N=C/c1ccc(Sc2ccccc2)c([N+](=O)[O-])c1,inactive,–
O=C(CSc1nc2c([nH]c3ccccc32)c(=O)n1-c1ccc(Cl)cc1)NC1CCCCC1,active: 10.3 µM,–
CC(C)OCCCn1c(-c2ccc(Br)cc2)c[nH]c1=S,"inconclusive: 18.4 µM [inhibitor, single point]",–
CC(=O)c1c(C(C)=O)c(C)n(NC(=O)c2ccccc2Cl)c1C,inactive,–
CCCCN1C2CCCC1CC(NC(=O)c1ccccc1Cl)C2 (stereo not drawn),"inconclusive: 29.1 µM [inhibitor, single point]",–
COc1cc(C(=O)NCc2nnc(SCC(=O)NCCc3ccccc3)o2)cc(OC)c1OC,inactive,–
CC(=O)[C@H]1CC[C@H]2[C@@H]3CC=C4C[C@@H](O)CC[C@]4(C)[C@H]3CC[C@]12C,inactive,–
COc1ccc(/C=N/Nc2cc(C)nc3ccc(OC)cc23)c(OC)c1,active: 11.6 µM,–
CCOC(=O)N1CCN(CC(=O)Nc2nnc(C(F)(F)F)s2)CC1,inactive,–
Cc1ccc(N2CN(CCC3=CCCCC3)CNC2=S)cc1,"inconclusive: 29.1 µM [inhibitor, single point]",–
CN1C(=O)[C@H]2[C@@H](c3ccc(C(F)(F)F)cc3)N[C@]3(CCCN(CC4CCCCC4)C3=O)[C@H]2C1=O,active: 20.6 µM,–
C=CCOc1ccccc1CN(CCc1ccccc1)C(=O)c1cccc(S(C)(=O)=O)c1,"inconclusive: 23.1 µM [inhibitor, single point]",–
O=[N+]([O-])c1ncccc1OCc1ccc(Cl)c(Cl)c1,"inconclusive: 23.1 µM [inhibitor, single point]",–
COc1ccc(N(C)S(=O)(=O)c2ccc3c(c2)NC(=O)CO3)c(OC)c1,inactive,–
CCCCOc1ccc(C(=O)NNC(=O)c2cnccn2)cc1OC,active: 8.2 µM,–
Cc1ccc(Sc2ncccc2[N+](=O)[O-])cc1,inactive,–
O=C(c1ccc(CNS(=O)(=O)c2ccccc2)cc1)N1CCN(Cc2ccccc2)CC1,"inconclusive: 1.16 µM [inhibitor, full curve]",–
CCc1ccc(NC(=O)CSc2nc3cc(C(=O)OC)ccc3c(=O)n2CC2CCCO2)cc1 (stereo not drawn),"inconclusive: 23.1 µM [inhibitor, single point]",–
O=C(NCCOCc1ccccc1)C(c1ccccc1)c1ccccc1,inactive,–
